# Reference: the supplement of paper PMC8728848
# This is one part of the list.
# B1: FBG4 (Homo sapiens), Q96EF6 (protein)
# chain: MGARLSRRRLPADPSLALDALPPELLVQVLSHVPPRSLVTRCRPVCRAWRDIVDGPTVWLLQLARDRSAEGRALYAVAQRCLPSNEDKEEFPLCALARYCLRAPFGRNLIFNSCGEQGFRGWEVEHGGNGWAIEKNLTPVPGAPSQTCFVTSFEWCSKRQLVDLVMEGVWQELLDSAQIEICVADWWGARENCGCVYQLRVRLLDVYEKEVVKFSASPDPVLQWTERGCRQVSHVFTNFGKGIRYVSFEQYGRDVSSWVGHYGALVTHSSVRVRIRLS
# Legend:
# Assay in all cases: glycan array binding signal (z-score within array); higher = stronger binding
# Settings in all cases: glycan notation: IUPAC condensed, linker removed
# Gal(b1-3)GalNAc = target: Gal(b1-3)GalNAc
# Procedure, shortened: (§1)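 Negative Z-scores can be read as non-binding. The Z-score is calculated within each array and then averaged across arrays of one protein sequence at different concentrations or buffers and across linkers. Arrays, 3228 in all, were curated from the Consortium for Functional Glycomics database and kept only where the protein sequence was available.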
# [1] = target: Gal(b1-3)GalNAc(b1-3)Gal(a1-4)Gal(b1-4)Glc
# Procedure, shortened: as §1
# [2] = target: Gal(b1-3)GalNAc(b1-3)Gal(b1-4)Glc
# Procedure, shortened: as §1
# [3] = target: Gal(b1-3)GalNAc(b1-3)Gal(b1-4)GlcNAc
# Procedure, shortened: as §1
# [4] = target: Gal(b1-3)GalNAc(b1-4)Gal(b1-4)Glc
# Procedure, shortened: as §1
# [5] = target: Gal(b1-3)GalNAc(b1-4)[Neu5Ac(a2-3)]Gal(b1-4)Glc
# Procedure, shortened: as §1
# [6] = target: Gal(b1-3)GlcNAc(b1-3)Gal(b1-3)GlcNAc
# Procedure, shortened: as §1
# [7] = target: Gal(b1-3)[Fuc(a1-4)]GlcNAc
# Procedure, shortened: as §1
# [8] = target: Gal(b1-3)[Fuc(a1-4)]GlcNAc(b1-3)Gal(b1-3)[Fuc(a1-4)]GlcNAc
# Procedure, shortened: as §1
# [9] = target: Gal(b1-3)[Fuc(a1-4)]GlcNAc(b1-3)Gal(b1-4)GlcNAc
# Procedure, shortened: as §1
# [10] = target: Gal(b1-3)[Fuc(a1-4)]GlcNAc(b1-3)Gal(b1-4)[Fuc(a1-3)]GlcNAc
# Procedure, shortened: as §1
# [11] = target: Gal(b1-3)[GlcNAc(b1-6)]GalNAc
# Procedure, shortened: as §1
# [12] = target: Gal(b1-3)[GlcNAc(b1-6)]GlcNAc
# Procedure, shortened: as §1
# [13] = target: Gal(b1-3)[Neu5Ac(a2-6)]GalNAc
# Procedure, shortened: as §1
# [14] = target: Gal(b1-3)[Neu5Ac(a2-6)]GlcNAc
# Procedure, shortened: as §1
# [15] = target: Gal(b1-3)[Neu5Ac(a2-6)]GlcNAc(a1-4)Gal(b1-4)Glc
# Procedure, shortened: as §1
# [16] = target: Gal(b1-3)[Neu5Ac(b2-6)]GlcNAc
# Procedure, shortened: as §1
# [17] = target: Gal(b1-4)GalNAc(a1-3)[Fuc(a1-2)]Gal(b1-4)GlcNAc
# Procedure, shortened: as §1
# [18] = target: Gal(b1-4)GalNAc(b1-3)[Fuc(a1-2)]Gal(b1-4)GlcNAc
# Procedure, shortened: as §1
# Gal(b1-4)Glc = target: Gal(b1-4)Glc
# Procedure, shortened: as §1
# Gal(b1-4)Glc6S = target: Gal(b1-4)Glc6S
# Procedure, shortened: as §1
# Gal(b1-4)GlcNAc = target: Gal(b1-4)GlcNAc
# Procedure, shortened: as §1
# [19] = target: Gal(b1-4)GlcNAc(b1-2)Man(a1-3)[Gal(b1-4)GlcNAc(b1-2)Man(a1-6)]Man(b1-4)GlcNAc(b1-4)GlcNAc
# Procedure, shortened: as §1
# [20] = target: Gal(b1-4)GlcNAc(b1-3)Gal(b1-3)GlcNAc
# Procedure, shortened: as §1
# [21] = target: Gal(b1-4)GlcNAc(b1-3)Gal(b1-4)Glc
# Procedure, shortened: as §1
# [22] = target: Gal(b1-4)GlcNAc(b1-3)Gal(b1-4)GlcNAc
# Procedure, shortened: as §1
# [23] = target: Gal(b1-4)GlcNAc(b1-3)Gal(b1-4)GlcNAc(b1-3)Gal(b1-4)GlcNAc
# Procedure, shortened: as §1
# [24] = target: Gal(b1-4)GlcNAc(b1-3)Gal(b1-4)[Fuc(a1-3)]GlcNAc(b1-3)Gal(b1-4)[Fuc(a1-3)]GlcNAc
# Procedure, shortened: as §1
# [25] = target: Gal(b1-4)GlcNAc(b1-3)GalNAc
# Procedure, shortened: as §1
# [26] = target: Gal(b1-4)GlcNAc(b1-3)[Gal(b1-4)GlcNAc(b1-6)]GalNAc
# Procedure, shortened: as §1
# [27] = target: Gal(b1-4)GlcNAc(b1-6)GalNAc
# Procedure, shortened: as §1
# [28] = target: Gal(b1-4)GlcNAc(b1-6)[Gal(b1-3)]GalNAc
# Procedure, shortened: as §1
# [29] = target: Gal(b1-4)GlcNAc(b1-6)[Gal(b1-3)]GlcNAc
# Procedure, shortened: as §1
# Gal3S(b1-3)GalNAc = target: Gal3S(b1-3)GalNAc
# Procedure, shortened: as §1
# Gal3S(b1-3)GlcNAc = target: Gal3S(b1-3)GlcNAc
# Procedure, shortened: as §1
# [30] = target: Gal3S(b1-3)[Fuc(a1-4)]GlcNAc
# Procedure, shortened: as §1
binder,measurement,setting,value
B1,glycan array binding signal (z-score),Gal(b1-3)GalNAc,-0.478
same,glycan array binding signal (z-score),[1],-0.289
same,glycan array binding signal (z-score),[2],-0.097
same,glycan array binding signal (z-score),[3],-0.307
same,glycan array binding signal (z-score),[4],-0.488
same,glycan array binding signal (z-score),[5],-0.335
same,glycan array binding signal (z-score),[6],-0.016
same,glycan array binding signal (z-score),[7],-0.571
same,glycan array binding signal (z-score),[8],-0.379
same,glycan array binding signal (z-score),[9],-0.167
same,glycan array binding signal (z-score),[10],-0.388
same,glycan array binding signal (z-score),[11],-0.487
same,glycan array binding signal (z-score),[12],-0.388
same,glycan array binding signal (z-score),[13],-0.433
same,glycan array binding signal (z-score),[14],-0.329
same,glycan array binding signal (z-score),[15],-0.174
same,glycan array binding signal (z-score),[16],-0.314
same,glycan array binding signal (z-score),[17],-0.462
same,glycan array binding signal (z-score),[18],-0.55
same,glycan array binding signal (z-score),Gal(b1-4)Glc,-0.291
same,glycan array binding signal (z-score),Gal(b1-4)Glc6S,0.38
same,glycan array binding signal (z-score),Gal(b1-4)GlcNAc,-0.453
same,glycan array binding signal (z-score),[19],0.176
same,glycan array binding signal (z-score),[20],-0.379
same,glycan array binding signal (z-score),[21],-0.379
same,glycan array binding signal (z-score),[22],-0.449
same,glycan array binding signal (z-score),[23],0.007
same,glycan array binding signal (z-score),[24],-0.073
same,glycan array binding signal (z-score),[25],-0.488
same,glycan array binding signal (z-score),[26],-0.438
same,glycan array binding signal (z-score),[27],-0.564
same,glycan array binding signal (z-score),[28],-0.435
same,glycan array binding signal (z-score),[29],-0.377
same,glycan array binding signal (z-score),Gal3S(b1-3)GalNAc,-0.102
same,glycan array binding signal (z-score),Gal3S(b1-3)GlcNAc,-0.199
same,glycan array binding signal (z-score),[30],0.145
